Results on eleven compounds are retold here after PubChem BioAssay AID1963874 (Molecular Pharmacology Branch, DTP, NCI, 2024).

For the assay, the system named is 253994-281-T-J1-PDC KRAS-mutant spheroids with HUVEC/MSC, viability. The experiment in a line: Anticancer human tumor 253994-281-T-J1-PDC patient-derived colorectal carcinoma cell line growth inhibition [KRAS2]. To be noted: for viability, T/C: stronger effect = lower value; for IC50: compound alone. An excerpt:
Multicellular complex tumor spheroid response to RAS pathway inhibitors in combination with a targeted agents in patient-derived cell lines with oncogenic KRAS variants from multiple cancer types
A high-throughput screen of multi-cell type tumor spheroids was designed to identify active combinations of targeted small molecules and KRAS pathway inhibitors. Complex spheroids include a stromal component modeled by human endothelial cells (HUVEC) and fibroblasts modeled by human mesenchymal stem cells (MSCs). The concentration ranges selected for each drug and investigational agent were based upon clinically achievable concentrations if the clinical Cmax of the agent was known.
Compounds. The drugs and investigational agents: BI-3406 (NSC825286), BAY-293 (NSC824723), batoprotafib (TNO155; NSC825523), sotorasib (AMG 510; NSC818433), MRTX1257 (NSC819558), elimusertib (BAY 1895344; NSC800525), molibresib (GSK525762; NSC774829), temuterkib (LY3214996; NSC803410), venetoclax (NSC766270), alisertib (NSC759677), olaparib (NSC753686), talazoparib (NSC767125), erdafitinib (NSC781556), ipatasertib (NSC767898), cabozantinib (NSC761068), nintedanib (NSC756659), abemaciclib (NSC768073), docetaxel (NSC628503), trametinib (NSC758246), and sapanisertib (NSC764658) were obtained from the National Cancer Institute (NCI) Developmental Therapeutics Program Chemical Repository. The FDA-approved anticancer drug set is available from the Developmental Therapeutics Program. […] The stock solutions were prepared in dimethyl sulfoxide (DMSO, Sigma-Aldrich, St. Louis, MO, cat. D2650) at 800-fold the tested concentration and stored at -70 degrees C prior to their use. All drugs and investigational agents were tested over a range starting from a high concentration at or near the clinical Cmax and decreasing in half-log increments. If the clinical Cmax for an agent had not been determined, the highest concentration tested was 10 microM.
Cell Culture. All cells were maintained in an incubator at 37 degrees C and 5% CO2 with 95% humidity. The PDC lines were cultured according to standard operating procedures established by the NCI PDMR (https://pdmr.cancer.gov/sops/default.htm). Briefly, all PDCs were thawed and cultured in Matrigel-coated flasks prepared with a working solution of 1X Ham's F-12 nutrient mix, without supplementation (Invitrogen, Waltham, MA, cat. 11765054), 100 U/mL penicillin-streptomycin (Invitrogen, cat. 15140122), and 2.5% Matrigel (Corning Inc., Corning, NY, cat. 354248) for the first three passages. All PDCs were cultured in complete DMEM/F-12 media containing advanced DMEM/F-12 (Invitrogen, cat. 12634028), 4.9% defined fetal bovine serum, heat inactivated (HyClone Laboratories Inc., Logan, UT, cat. SH30070.03HI), 389 ng/mL hydrocortisone (Sigma-Aldrich, cat. H4001), 9.7 ng/mL human EGF recombinant protein (Invitrogen, cat. PHG0313), 23.4 microg/mL adenine (Sigma-Aldrich, cat. A2786), 97.3 U/mL penicillin-streptomycin (Invitrogen, cat. 15140122), 1.9 mM L-glutamine (Invitrogen, cat. 25030081), and 9.7 microM Y-27632 dihydrochloride (Tocris Bioscience, Bristol, United Kingdom, cat. 1254). The PDCs were cultured in complete DMEM/F12 media without 9.7 microM Y-27632 dihydrochloride for at least two passages prior to the screen. The established cell line HOP-62 was cultured in RPMI 1640 medium, HEPES (Invitrogen, cat. 22400105) with 10% defined fetal bovine serum (HyClone Laboratories Inc., cat. SH30070.03) and 2 mM L-glutamine (Invitrogen, cat. 25030081). The pooled donor HUVEC were cultured in endothelial cell growth medium 2 (PromoCell, Heidelberg, Germany, cat. C-22011) and the hMSC were cultured in mesenchymal stem cell growth medium 2 (PromoCell, cat. C-28009). For all experiments, HUVEC and hMSC were used at passages </=5, while the malignant cell lines were used at passages </=15. […]

For part of its entries the source gives two or more results. The other results are left out here. There may be further records. The values listed for one entry are repeats (runs, samples, wells, individuals or studies). Dates in brackets are months of testing. Additions like (4×) stand for listed records that agree.
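Further: spheroids exposed to agents for seven days before readout.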
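Wherever viability, T/C is given: percent of DMSO vehicle control viability.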

For `CNCc1ccccc1-c1csc(C(C)Nc2nc(C)nc3cc(OC)c(OC)cc23)c1` (configuration not stated), the viability, T/C (in general, the result in the treated group divided by that in the control group, in per cent) reads like this: (compound alone 0.1 µM) 92.6, 82.3, 97.8, 93.2, 76.4, 87, 93.8, 105, 87.2, 89.8, 106% [2021-08] and 98.4, 89.8, 88.4, 90.9, 94.1, 102% [2021-09]; (compound alone 0.316 µM) 82.3, 81.5, 105, 80.5, 80, 78.1, 92.1, 84.1, 95.7, 98.7, 89.1% [2021-08] and 87.5, 90.8, 87.4, 87.2, 97.8, 86.1% [2021-09]; (compound alone 1 µM) 84, 84.2, 82.1, 77.8, 70, 67.1, 81.7, 85.7, 80.3, 96.6, 92.9% [2021-08] and 76.5, 95, 77.1, 101, 87.9, 85.8% [2021-09]; (compound alone 3.16 µM) 95, 51.2, 25.6, 21.5, 19, 5.03, 44, 34, 39.1, 37.8, 35.6% [2021-08] and 47, 52.2, 30.1, 45, 47.2, 37.9% [2021-09]. The IC50 – broadly, the concentration that gives 50% inhibition – (run of 08/19/2021) is 1.37 µM and 5.22, 3.25, 1.93, 1.75, 1.57 µM [2021-08].

With `COC(=O)c1ccc2c(C(=Nc3ccc(N(C)C(=O)CN4CCN(C)CC4)cc3)c3ccccc3)c(O)[nH]c2c1`, the IC50 is listed as 6.54 µM, 5.62 µM, > 10 µM, 7.65 µM. Further, where the note is “compound alone 10 µM”, the viability, T/C is 29.5, 12, 63.1, 39.5, 62.7%.

`COc1cc2nc(C)nc(NC(C)c3cc(N)cc(C(F)(F)F)c3)c2cc1OC1CCOC1` (configuration not stated): the viability, T/C was 75, 96.5, 97, 93.1, 75.7, 89.2, 94.5, 102, 87.6, 95.2, 93.5% [2021-08] and 91.6, 85.8, 95.5, 84.3, 94.3, 96.5% [2021-09] (compound alone 0.1 µM); 63.7, 81.4, 104, 66.5, 73.5, 83.2, 86, 103, 74.1, 87, 77.2% [2021-08] and 77, 85.5, 91.8, 75.1, 91.2, 85.4% [2021-09] (compound alone 1 µM); 66.5, 83.5, 80, 72.6, 63, 78, 90.2 (2×), 94.2, 92.7, 80.4% [2021-08] and 86.2, 87.5, 78.6, 81, 85.5, 90.2% [2021-09] (compound alone 3.16 µM); 72.4, 77.5, 91.6, 55.2, 77.1, 64.4, 89.7, 81.2, 80.5, 82.7, 78.9% [2021-08] and 82, 84.8, 77, 69.3, 79.7, 88.3% [2021-09] (compound alone 10 µM).

In the case of `Cn1ncnc1[C@H]1c2n[nH]c(=O)c3cc(F)cc(c23)N[C@@H]1c1ccc(F)cc1`, the viability, T/C runs as follows: (compound alone 0.00316 µM) 110, 88.3, 114, 102, 98.5%; (compound alone 0.1 µM) 85.2, 75.4, 103, 88.5, 99.4%.

Consider `COc1cc(OC)cc(N(CCNC(C)C)c2ccc3ncc(-c4cnn(C)c4)nc3c2)c1`, for which the IC50 was 7.49 µM, 6.78 µM, > 10 µM, 6.95 µM, 7.28 µM. For the same compound, under “compound alone 10 µM”, the viability, T/C was 36.7, 26.6, 59.5, 32.2, 34.7%.

Regarding `CC1(C)CCC(CN2CCN(c3ccc(C(=O)NS(=O)(=O)c4ccc(NCC5CCOCC5)c([N+](=O)[O-])c4)c(Oc4cnc5[nH]ccc5c4)c3)CC2)=C(c2ccc(Cl)cc2)C1`, the viability, T/C (compound alone 10 µM) was 78.5, 57.2, 64.1, 71.2, 84.8%.

Regarding `C=CC(=O)N1CCN(c2nc(OCC3CCCN3C)nc3c2CCN(c2cccc4cccc(C)c24)C3)CC1CC#N` (configuration not stated), the viability, T/C was 104, 77.2, 83.3, 91.7, 77, 83.8, 86.7, 101, 93.4, 96.8, 95.9% [2021-08] and 86.8, 93.1, 93.4, 98.7, 97.7, 96.1% [2021-09] (compound alone 0.316 µM); 111, 92.8, 91.7, 72.9 (2×), 96.2, 91.6, 86.6, 84.7, 80.7, 86.4% [2021-08] and 85.2, 93.2, 90.8, 107, 92.1, 97.6% [2021-09] (compound alone 1 µM); 96, 39.6, 24.2, 11.3, 10.2, 7.14, 62.4, 60.2, 23.3, 43.3, 13.5% [2021-08] and 67.1, 85.1, 66.2, 77.6, 58.3, 55.3% [2021-09] (compound alone 3.16 µM). Besides, the IC50 by setting is: (run of 08/19/2021) > 3.16 µM, 2.43 µM, 2 µM, 1.53 µM, 1.5 µM, 1.73 µM; (run of 08/26/2021) > 3.16 µM, 1.92 µM, 2.58 µM, 1.78 µM.

Take `C=CC(=O)N1CCN(c2nc(=O)n(-c3c(C)ccnc3C(C)C)c3nc(-c4c(O)cccc4F)c(F)cc23)C(C)C1` (configuration not stated): the viability, T/C (compound alone 0.1 µM) was 91.4, 109, 104 (2×), 110, 108, 101 (2×), 103, 95.2, 102% [2021-08] and 97.5, 107, 105, 98.9, 81.7, 85.6% [2021-09]; the viability, T/C (compound alone 1 µM) was 74.8, 92.9, 83.5, 102 (2×), 90.1, 105, 112, 107, 103, 106% [2021-08] and 93.5, 96.7, 83.7, 97.2, 102, 93.8% [2021-09]; the viability, T/C (compound alone 3.16 µM) was 85.6, 81.7, 105, 106, 94.5, 104, 90.5, 83.9, 94.1, 102, 108% [2021-08] and 96.9, 100, 92.9, 90.4, 96.1, 90.5% [2021-09]; the viability, T/C (compound alone 10 µM) was 67.2, 88.2, 94.3, 97.6, 118, 105, 93, 89.2, 96.7, 90.2, 92.7% [2021-08] and 101, 89.8, 94.2, 95.5, 95.3, 87.4% [2021-09].

In the case of `CC1OCC2(CCN(c3cnc(Sc4ccnc(N)c4Cl)c(N)n3)CC2)C1N` (configuration not stated), the viability, T/C is 89.6, 85.2, 86.2, 78.4, 85.7, 74.2, 88.4, 95.8, 92, 88.6, 101% [2021-08] and 90.2, 98.5, 107, 102, 96.2, 86.1, 84.3, 80.8% [2021-09] (compound alone 0.1 µM); 83.5, 77.2, 84.6, 68.1, 76.5, 57.2, 80.1, 85.7, 79, 87.5, 86.2% [2021-08] and 89.6, 86, 88.8 (2×), 83.9, 91.9, 75.8, 81.1% [2021-09] (compound alone 0.316 µM); 83.1, 84.9, 88.5, 58.4, 63.3, 57.6, 69, 71.5, 76.3, 79.4, 70.1% [2021-08] and 83.2, 85.8, 86.4, 77.8, 81.1, 77.3, 81.7, 68.6% [2021-09] (compound alone 1 µM); 49.7, 41.1, 58.7, 49, 44.1, 51.1, 57.4, 65.8, 63.2, 71.5, 55.5% [2021-08] and 69.2, 69.3, 78.2, 75.9, 62.8, 74.7, 64.7, 66.3, 78.4% [2021-09] (compound alone 3.16 µM); 46.7, 68.3, 41.8, 36.9, 31.7, 27.8, 34.7, 40.6, 50.4, 40.9, 36.5% [2021-08] and 53, 56, 55.9, 55.5, 44.4, 57.4, 49.9, 48.5, 54.4% [2021-09] (compound alone 10 µM). Further, the IC50 reads like this: (run of 08/19/2021) 3.13 µM, > 10 µM, 5.72 µM, 2.5 µM, 2.24 µM, 2.11 µM; (run of 08/26/2021) 4.3 µM, 6.3 µM, > 10 µM, 7.02 µM, 4.15 µM; (run of 09/02/2021) > 10 µM, 7.23 µM, 9.95 µM, 9.52 µM.

With `COc1cc(Nc2ncc3c(n2)-c2ccc(Cl)cc2C(c2c(F)cccc2OC)=NC3)ccc1C(=O)O`, the IC50 is < 31.6 nM and > 10 µM. Moreover, the viability, T/C (compound alone 3.16 µM) was 79.9, 61.6, 43.9, 49.7, 50.6%.

For `CC(C)NCC(C(=O)N1CCN(c2ncnc3c2C(C)CC3O)CC1)c1ccc(Cl)cc1` (configuration not stated), the viability, T/C is 81.7, 99, 112, 103, 89.7% (compound alone 0.316 µM) and 97.7, 75, 101, 103, 81.3% (compound alone 3.16 µM).
